Consider 44 molecules from paper PMC4336329 (PLoS ONE, 2015).

The structures appear in SMILES notation. Hit rate of the full screen: of about 310,000 compounds, about 2,200 (0.71%) showed an effect of 50% or more. Effects have a minus sign here. This is one part of the list.

In the test the target is human ether-à-go-go-related gene (hERG) potassium channel (human, UniProt Q12809). The experiment in a line: primary screen, population patch clamp on CHO cells stably expressing hERG.
Chain of human ether-à-go-go-related gene (hERG) potassium channel (Q12809 whole entry, looked up): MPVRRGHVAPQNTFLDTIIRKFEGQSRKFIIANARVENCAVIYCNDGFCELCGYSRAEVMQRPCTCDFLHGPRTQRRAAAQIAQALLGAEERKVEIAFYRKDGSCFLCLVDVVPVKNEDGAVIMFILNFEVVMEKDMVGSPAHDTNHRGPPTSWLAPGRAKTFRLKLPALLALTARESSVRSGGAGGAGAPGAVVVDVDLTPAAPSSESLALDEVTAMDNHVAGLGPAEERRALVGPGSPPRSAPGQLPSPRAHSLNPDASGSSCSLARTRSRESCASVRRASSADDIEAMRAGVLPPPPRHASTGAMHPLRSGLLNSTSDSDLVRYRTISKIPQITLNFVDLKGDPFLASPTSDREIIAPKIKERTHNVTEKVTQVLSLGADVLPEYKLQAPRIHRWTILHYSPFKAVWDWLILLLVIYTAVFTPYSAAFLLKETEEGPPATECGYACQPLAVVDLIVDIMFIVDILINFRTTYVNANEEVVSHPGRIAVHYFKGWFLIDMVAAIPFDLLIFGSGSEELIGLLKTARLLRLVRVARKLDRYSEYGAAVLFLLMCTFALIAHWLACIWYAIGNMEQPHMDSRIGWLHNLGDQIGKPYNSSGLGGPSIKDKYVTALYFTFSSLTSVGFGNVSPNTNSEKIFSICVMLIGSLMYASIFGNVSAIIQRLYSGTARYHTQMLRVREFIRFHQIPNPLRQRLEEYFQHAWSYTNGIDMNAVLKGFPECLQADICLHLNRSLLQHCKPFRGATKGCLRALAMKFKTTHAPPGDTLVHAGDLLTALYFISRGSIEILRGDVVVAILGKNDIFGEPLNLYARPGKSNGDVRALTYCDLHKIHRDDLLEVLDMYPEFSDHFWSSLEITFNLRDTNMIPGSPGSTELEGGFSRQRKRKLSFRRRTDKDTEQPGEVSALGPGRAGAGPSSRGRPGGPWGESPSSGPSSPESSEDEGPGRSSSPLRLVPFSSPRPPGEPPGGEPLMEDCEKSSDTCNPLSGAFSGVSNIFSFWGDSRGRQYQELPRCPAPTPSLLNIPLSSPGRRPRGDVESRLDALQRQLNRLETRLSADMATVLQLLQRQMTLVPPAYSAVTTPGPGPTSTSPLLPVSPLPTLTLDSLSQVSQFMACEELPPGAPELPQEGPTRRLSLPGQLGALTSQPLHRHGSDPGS
Consider `COc1ccc(OC)c(N2C(=O)NC(=O)C(CCc3ccncc3)(CCc3ccncc3)C2=O)c1`, for which the “hERG current change (%, negative = inhibition) at 1uM” value is given as -0.534%.

As for `Cc1ccc2[nH]c3c(=O)n4c(nc3c2c1)SCC4`, the “hERG current change (%, negative = inhibition) at 1uM” value was 10.8%.

Turning to `COc1cccc(NC(=O)Cn2c3ccc(OC)cc3c3nc4n(c(=O)c32)CCS4)c1`, the “hERG current change (%, negative = inhibition) at 1uM” value was 16.8%.

Take `Cc1ccc(C(=O)NC(=C(Cl)Cl)S(=O)(=O)c2ccccc2)cc1`: the “hERG current change (%, negative = inhibition) at 1uM” value turned out to be 16.1%.

On to `NC(N)=NS(=O)(=O)c1ccc(NC(=S)NC(=O)/C=C/c2cccs2)cc1`, for which the “hERG current change (%, negative = inhibition) at 1uM” value is 6.62%.

For `CCOC(=O)c1cnn(-c2nc(CC)nc3sc4c(c23)CCC4)c1N`, the “hERG current change (%, negative = inhibition) at 1uM” value amounted to 1.45%.

On to `Cc1cc2ccccn2c1C(C[N+](=O)[O-])c1ccc(N(C)C)cc1` (centres unmarked), for which the “hERG current change (%, negative = inhibition) at 1uM” value was 2.6%.

`NC(=O)NC(=O)COC(=O)[C@H](Cc1ccccc1)NC(=O)c1cccs1`: the “hERG current change (%, negative = inhibition) at 1uM” value is reported as -1.29%.

For the molecule `COc1ccc(C(=O)C2CCCN(C3CSCCSC3)C2)c(C)c1` (centres unmarked), the “hERG current change (%, negative = inhibition) at 1uM” value is reported as -11.2%.

`CC(=O)Nc1ccc(NC(=O)CCCCCN2C(=O)c3ccccc3C2=O)cc1`: the “hERG current change (%, negative = inhibition) at 1uM” value was determined as 3.78%.

As for `S=C1NC2(CCCCC2)NN1c1ccccc1`, the “hERG current change (%, negative = inhibition) at 1uM” value was determined as 10.7%.

Consider `O=C(CSc1ncccn1)N/N=C/c1cccs1`, for which the “hERG current change (%, negative = inhibition) at 1uM” value is given as 8.74%.

`COC(=O)c1[nH]c(C)c(/C(O)=C2\C(=O)C(=O)N(CCN(C)C)C2c2cccc(OC)c2OC)c1C` (centres unmarked): the “hERG current change (%, negative = inhibition) at 1uM” value was found to be 5.05%.

Consider `COc1cc(Cc2[nH+]ccc3cc(OC)c(OC)cc23)c(S(=O)(=O)[O-])cc1OC`, for which the “hERG current change (%, negative = inhibition) at 1uM” value was determined as 11.6%.

As to `CCOC(=O)C1CCCN(C(=O)c2ccc(CS(=O)(=O)c3ccc(Br)cc3)o2)C1` (centres unmarked), the “hERG current change (%, negative = inhibition) at 1uM” value was -12.8%.

For `COc1ccccc1N1CCN(C(=O)c2cc3cc(Cl)ccc3[nH]2)CC1`, the “hERG current change (%, negative = inhibition) at 1uM” value is reported as 7.13%.

`CC1(C)C(=O)OC(c2c3ccccc3cc3ccccc23)C(C)(C)C1=O` (centres unmarked): the “hERG current change (%, negative = inhibition) at 1uM” value is 0.485%.

On to `CN1CCN(CCCNC(=O)c2ccc(CS(=O)(=O)c3ccc(Br)cc3)o2)CC1`, for which the “hERG current change (%, negative = inhibition) at 1uM” value is listed as 2.98%.

Consider `CN(C)N1C(N)=C(C#N)C(c2cccnc2)C2=C1CCCC2=O` (centres unmarked), for which the “hERG current change (%, negative = inhibition) at 1uM” value is recorded as 7.23%.

Take `CC(Oc1cccc(Br)c1)C(=O)N1CCCN(C)CC1` (centres unmarked): the “hERG current change (%, negative = inhibition) at 1uM” value is recorded as 5.81%.

Regarding `COc1ccc(S(=O)(=O)N2CCCOC2CNC(=O)C(=O)NCc2ccccc2F)cc1C` (centres unmarked), the “hERG current change (%, negative = inhibition) at 1uM” value worked out at 16%.

`COc1ccc(COC[C@H](C)[C@H](O)[C@@H](C)[C@H]2OC(=O)[C@@H]2C)cc1`: the “hERG current change (%, negative = inhibition) at 1uM” value was 17.6%.

For `CCN(CC)CCN(CC(=O)N(C1CCCCC1)C1CCCCC1)C(=O)c1cccnc1.Cl.O`, the “hERG current change (%, negative = inhibition) at 1uM” value was -24.7%.

Take `O=C(NC1CCN(C(=O)Nc2cccc(F)c2)CC1)c1ccco1`: the “hERG current change (%, negative = inhibition) at 1uM” value turned out to be 6.49%.

On to `Cc1nc2sc(C)c(C)c2c(=O)[nH]1`, for which the “hERG current change (%, negative = inhibition) at 1uM” value was 8.79%.

For the molecule `CC(C)(C)c1ccc(CN(Cc2ccco2)Cc2nnnn2C2CCCC2)cc1`, the “hERG current change (%, negative = inhibition) at 1uM” value turned out to be 13.8%.

For `COc1ccc(NC(=O)/C=C/c2cccc(Br)c2)cn1`, the “hERG current change (%, negative = inhibition) at 1uM” value is recorded as 5.56%.

Turning to `CCC(=O)Nc1ccc(N2CCCCC2)cc1`, the “hERG current change (%, negative = inhibition) at 1uM” value is 15.3%.

As to `COC(=O)COc1c(/C=C\c2nc(O)c([N+](=O)[O-])c(=O)[nH]2)cccc1OC`, the “hERG current change (%, negative = inhibition) at 1uM” value was found to be 10.4%.

Turning to `COc1nccnc1NS(=O)(=O)c1ccc(NCc2cc(Br)ccc2O)cc1`, the “hERG current change (%, negative = inhibition) at 1uM” value is recorded as 6.54%.

With `O=C(CSc1ccccc1)NNC(=O)c1ccccc1O`, the “hERG current change (%, negative = inhibition) at 1uM” value is 18.6%.

Consider `Nc1cccc(/C=C/C(=O)O)c1`, for which the “hERG current change (%, negative = inhibition) at 1uM” value was 14.2%.

On to `CCN(CC(=O)NC1CCS(=O)(=O)C1)S(=O)(=O)c1ccc(F)cc1` (centres unmarked), for which the “hERG current change (%, negative = inhibition) at 1uM” value worked out at 19.3%.

Regarding `O=C(CCn1c(=S)[nH]c2ccccc2c1=O)NCCc1ccc(Cl)cc1`, the “hERG current change (%, negative = inhibition) at 1uM” value turned out to be 4.31%.

In the case of `O=C(Nc1ccc([N+](=O)[O-])cc1)Nc1ccc(N2CCOCC2)c2nonc12`, the “hERG current change (%, negative = inhibition) at 1uM” value is recorded as 6.63%.

For the molecule `O=C(Nc1ccc(F)cc1F)c1cc2ccccc2oc1=O`, the “hERG current change (%, negative = inhibition) at 1uM” value is given as 5.3%.

On to `Cc1cc[n+](CC(=O)N2CCCc3ccccc32)cc1.[Cl-]`, for which the “hERG current change (%, negative = inhibition) at 1uM” value came out at 22.2%.

As for `COc1ccc(/C=C/C(=O)N(CC(C)C)CC(C)C)cc1Br`, the “hERG current change (%, negative = inhibition) at 1uM” value is reported as 0.531%.

For `N#C/C(C(=O)N1CCCCC1)=C1/N=C(NC(=O)c2ccc(F)cc2)c2ccccc21`, the “hERG current change (%, negative = inhibition) at 1uM” value came out at 16.7%.

In the case of `CCN(CC)S(=O)(=O)c1cccc(NC(=O)C2CC(=O)N(c3ccc4c(c3)OCCO4)C2)c1` (centres unmarked), the “hERG current change (%, negative = inhibition) at 1uM” value amounted to 1.35%.

`CN1CCN(C(=O)/C(=C/c2ccccc2)c2ccccc2)CC1`: the “hERG current change (%, negative = inhibition) at 1uM” value was -33.2%.

With `O=C(CNC(=O)c1ccc(Br)o1)NCc1ccccc1`, the “hERG current change (%, negative = inhibition) at 1uM” value was found to be 11.1%.

For `CCOC(=O)c1ccc(NC(=O)CSc2nnc(COc3ccccc3)n2C)cc1`, the “hERG current change (%, negative = inhibition) at 1uM” value is listed as 1.7%.

Regarding `COc1ccccc1N(CC(=O)NCCSCc1ccco1)S(=O)(=O)c1ccccc1`, the “hERG current change (%, negative = inhibition) at 1uM” value is reported as 7.33%.
